# The campaign covered roughly 210,000 compounds. About 5,900 (2.8%) were called active. The shares of active, inactive and inconclusive entries below differ from those in the screen. Calls follow the shape of the dose curve; as a rule, active = well fitted activation curve with a large enough effect; inconclusive = small, poorly fitted or top-dose-only effect; inactive = no such curve, though single readings can be large or run the other way. A potency beside an inconclusive call is a rough fit, not a confirmed value.
# Assay: qHTS Assay for Enhancers of SMN2 Splice Variant Expression; also: nearly all actives have a fitted effect of over 55% in size; as to activity change, positive = activation: % of control where 0% means no effect
# Conditions: HEK293 SMN2-luciferase splicing reporter, luminescence, 30-36 h; activity change, positive = activation: at 46.1 µM (top of the series)
# Text: NIH Chemical Genomics Center [NCGC] NIH Molecular Libraries Probe Production centers Network [MLPCN] MLPCN Grant: R03 MH084179-01 Assay Submitter (PI): Elliot Androphy NCGC Assay Overview: Spinal muscular atrophy (SMA) is caused by insufficient levels of the survival motor neuron protein SMN. The SMN locus on chromosome 5q13 contains two inverted copies of SMN called SMN1 and SMN2 which are 99% identical at the amino acid level. SMN1 is a fully functional protein and SMN2 skips exon 7 90% of the time. Skipping of exon 7 produces non-functional protein product. 10% of the SMN2 protein includes exon 7 and is fully functional. In the SMA disease state, mutations in the SMN1 locus are the cause of the disease state. Because only 10% of SMN2 is of the fully functional form, it is not sufficient to overcome the deficiency produced by the loss of the SMN1 product. A therapy that either increase the amount of SMN2 product made or to increase the inclusion of exon 7 has been proposed for the treatment of SMA. We have designed an assay to identify small molecules that can increase the amount of functional SMN2 product by appending a luciferase reporter gene after the native SMN2 gene, such that inclusion of exon 7 in the expressed product places the luciferase sequence in frame, thus generating functional luciferase enzyme.
# NCGC Assay Protocol Summary: This screen utilizes a luciferase reporter gene assay, combining the promoter and splicing based cassettes in tandem with the major portion of the native SMN2 cDNA, and then transfected into HEK293 cells. Compounds that increase luciferase signal presumably enhance expression of the functional SMN2 splice variant. Passaging media contained DMEM w/ glutamax (+phenol red) 10% FCS, 1x pen/strep, 200 ug/ml hygro, 1x sodium pyruvate. Assay media contained DMEM w/ glutamax (-phenol red) 10% FCS, 1x pen strep, 1x pyruvate Sequence, Parameter, Value, Description (1) Cells, […], 2000 cells/well, 1536 TC treated White solid bottom plate (2) Time, 10-12 hours, 37C 5% CO2 (3) Compound, 23 nl, MLSMR Library (4) Control Compound, 23 nL, Sodium butyrate st 4.5mM (final) conc (5) Time, 30-36 hours, 37C 5% CO2 (6) Reagent, 3 ul, One Glo (TM) from Promega (7) Time, 5-15 minutes, Room temp (8) Detector, Viewlux: luminescent read, 60 second integration, high speed 2x binning Keywords: Spinal muscular atrophy, SMA, SMN2, high throughput screening, MLSMR, MLPCN, NIH Roadmap, qHTS and NCGC
# Potency is read from the fitted curve at half-maximal effect; tags tell the direction and shape of the fitted curve.
SMILES,Potency,"activity change, positive = activation"
O=C(c1ccc(S(=O)(=O)c2cccc(Cl)c2)c([N+](=O)[O-])c1)N1CCN(Cc2ccccc2)CC1,"inconclusive: 0.0398 µM [activator, partial curve]",–
Cc1cc(C(=O)N/N=C/C=C/c2ccccc2)c(C)o1,–,inactive: -6.37%
CCCCNC(=O)Nc1ccon1,–,inactive: -26.9%
O=C(COc1ccccc1)Nc1ncc2c(n1)CCCC2=O,"inconclusive: 0.0224 µM [activator, full curve, poor fit]",–
O=c1c2ccccc2[nH]c(=S)n1CCc1ccccc1,"inconclusive: 35.5 µM [activator, single point]",–
CC1CN(c2nc3ccccc3cc2-c2ccccc2)CC(C)O1 (centres undefined),–,inactive: -22%
COc1cc(C(=O)Nc2nnc(CC(C)C)s2)c([N+](=O)[O-])cc1OC,–,inactive: -1.33%
CCC(=O)NCCc1nc2cc(NC(=O)c3ccc(OC)cc3)ccc2n1C,active: 12.6 µM,–
O=C(Nc1ccc(NC(=O)C2CC2)nc1)c1cnccn1,"inconclusive: 17.8 µM [activator, partial curve, poor fit]",–
CC(C)(C)c1csc(NC2=NS(=O)(=O)c3ccccc32)n1,active: 8.91 µM,–
COC(=O)CSc1nnc2n1C(C)(C)Cc1ccccc1-2,–,inactive: 17.3%
COC(=O)C1=C(C(=O)OC)[C@@H]2N(C)c3ccc(OC)cc3[C@@]23C[C@@H](C(=O)OC)N(S(=O)(=O)c2ccc4c(c2)OCCN4C)C3=N1,"inconclusive: 0.631 µM [activator, partial curve, poor fit]",–
O=C(N/N=C/c1ccc(-c2ccccc2C(=O)O)o1)c1cccs1,–,inactive: 6.27%
COCCCNC(=O)CCn1c(=O)c2ccccc2n(CC(=O)Nc2c(C)cccc2C)c1=O,"inconclusive: 1 µM [activator, full curve, poor fit]",–
COc1cc(-c2nnc(SCC(=O)OC3CCCCC3)o2)cc(OC)c1OC,"inconclusive: 35.5 µM [activator, partial curve]",–
O=C(O)c1cc(-c2ccccc2)n(-c2ccc(Cl)cc2)n1,–,inactive: 3.95%
CCOC(=O)N1CCN(C(=O)CCSc2ccccc2)CC1,"inconclusive: 15.8 µM [activator, single point]",–
COc1ccccc1NC(=O)CN1C(=O)c2cccc3cccc1c23,–,inactive: -43.8%
CC(=O)c1ccc(N2CCN(C(=S)Nc3ccc(Oc4ccccc4)cc3)CC2)cc1,–,inactive: -56.3%
COc1ccc(/C=N/NC(=O)CCCCCNC(=O)c2ccccc2)cc1,"inconclusive: 35.5 µM [activator, single point]",–
COc1ccc(Cl)cc1-c1nc(-c2ccc(Br)o2)no1,"inconclusive: 11.2 µM [activator, partial curve, poor fit]",–
COc1ccc(-c2cn3cccnc3n2)cc1,active: 12.6 µM,–
CC1CCN(C(=O)c2cc(-c3cccc(Cl)c3)on2)CC1,"inconclusive: 31.6 µM [activator, single point]",–
CC(C)(C)C(=O)c1cnc(Nc2ccccc2)s1,"inconclusive: 10 µM [activator, partial curve]",–
CCOC(=O)c1ccc(NC(=O)c2csc3c2CCCCC3)cc1,–,inactive: -16.6%

SMILES,Potency,"activity change, positive = activation"
O=C(OCC(=O)c1c[nH]c2ccccc12)c1ccco1,–,inactive: 0.819%
CCc1ccc(/C=C2\Oc3cc(OC(=O)N4CCOCC4)ccc3C2=O)cc1,–,inactive: -47.2%
O=C(N/N=C/c1cccc(F)c1)c1c(O)c2c([nH]c1=O)CCCC2,active: 12.6 µM,–
Cc1nn(-c2ccccc2)c(N)c1N=Nc1ccc2ccccc2c1,active: 12.6 µM,–
COc1ccc(C(=O)n2nc(-c3ccco3)nc2N)cc1,"inconclusive: 5.01 µM [activator, single point]",–
O=C(CN1C2=NCCCN2c2ccccc21)c1cccs1,"inconclusive: 35.5 µM [activator, single point]",–
CCCNC(=O)[C@H](Cc1c[nH]c2ccccc12)NC(=O)c1ccccc1Cl,"inconclusive: 2.51 µM [activator, full curve, poor fit]",–
COc1cccc(NC(=O)CCc2nc(-c3cc(OC)c(OC)c(OC)c3)no2)c1,–,inactive: -3.55%
Cc1ccc(N=Cc2sc(O)c3ccccc23)cc1,active: 4.47 µM,–
O=C(O)CCC(=O)Nc1ccccc1C(=O)NCCc1ccccc1,"inconclusive: 35.5 µM [activator, single point]",–
CCCCOC(=O)Nc1nnc(Cc2ccc(Cl)cc2)s1,"inconclusive: 3.16 µM [activator, single point]",–
Cn1c(NC(=O)CCc2ccccc2)cc(=O)n(C)c1=O,"inconclusive: 11.2 µM [activator, partial curve, poor fit]",–
Cc1ccnc(NC(=O)c2cccs2)c1,"inconclusive: 15.8 µM [activator, partial curve, poor fit]",–
Cc1ccc(-c2cc(=O)c3cc(F)ccc3[nH]2)cc1,"inconclusive: 11.2 µM [activator, single point]",–
CCOC(=O)C1=C(O)/C(=C/c2ccc(OCC(=O)O)c(OC)c2)SC1=Nc1ccc(OC)cc1,"inconclusive: 2.24 µM [activator, single point]",–
CC(C)(C)c1ccc(OCC(O)CSc2ncn[nH]2)cc1 (centres undefined),"inconclusive: 15.8 µM [activator, partial curve, poor fit]",–
COc1ccc2c(c1OC)C(=O)c1ccccc1C2=O,"inconclusive: 12.6 µM [activator, single point]",–
O=c1/c(=C\c2ccc3c(c2)OCO3)sc2n1CCCN=2,–,inconclusive: 134% [activator]
Cc1cc(C)nc(SCc2csc(-c3ccccc3)n2)n1,active: 5.01 µM,–
CCOc1cc(N2CCOCC2)c(OCC)cc1NC(=O)CN1CCCC1,"inconclusive: 22.4 µM [activator, single point]",–
CCOC(=O)c1csc(NC(=O)COc2ccc(Cl)cc2Cl)n1,–,inactive: -8.47%
COc1ccc2sc(NC(=O)c3ccco3)nc2c1,"inconclusive: 0.631 µM [activator, full curve]",–
Cc1ccc(N=Cc2c(O)n(-c3cc(Cl)ccc3N3CCOCC3)c(=O)c3ccccc23)cc1C,–,inactive: -5.1%
Cc1nc2cc(NCc3cccs3)ccc2n1C,active: 7.94 µM,–
